{"source": "paper PMC4336329", "about": "(PLoS ONE, 2015)", "note": "Hit rate of the full screen: of about 310,000 compounds, about 2,200 (0.71%) showed an effect of 50% or more. Effects have a minus sign here. This is one part of the list."}
{"biological_target": "human ether-à-go-go-related gene (hERG) potassium channel (human, UniProt Q12809)", "sequence (Q12809 whole entry, looked up)": "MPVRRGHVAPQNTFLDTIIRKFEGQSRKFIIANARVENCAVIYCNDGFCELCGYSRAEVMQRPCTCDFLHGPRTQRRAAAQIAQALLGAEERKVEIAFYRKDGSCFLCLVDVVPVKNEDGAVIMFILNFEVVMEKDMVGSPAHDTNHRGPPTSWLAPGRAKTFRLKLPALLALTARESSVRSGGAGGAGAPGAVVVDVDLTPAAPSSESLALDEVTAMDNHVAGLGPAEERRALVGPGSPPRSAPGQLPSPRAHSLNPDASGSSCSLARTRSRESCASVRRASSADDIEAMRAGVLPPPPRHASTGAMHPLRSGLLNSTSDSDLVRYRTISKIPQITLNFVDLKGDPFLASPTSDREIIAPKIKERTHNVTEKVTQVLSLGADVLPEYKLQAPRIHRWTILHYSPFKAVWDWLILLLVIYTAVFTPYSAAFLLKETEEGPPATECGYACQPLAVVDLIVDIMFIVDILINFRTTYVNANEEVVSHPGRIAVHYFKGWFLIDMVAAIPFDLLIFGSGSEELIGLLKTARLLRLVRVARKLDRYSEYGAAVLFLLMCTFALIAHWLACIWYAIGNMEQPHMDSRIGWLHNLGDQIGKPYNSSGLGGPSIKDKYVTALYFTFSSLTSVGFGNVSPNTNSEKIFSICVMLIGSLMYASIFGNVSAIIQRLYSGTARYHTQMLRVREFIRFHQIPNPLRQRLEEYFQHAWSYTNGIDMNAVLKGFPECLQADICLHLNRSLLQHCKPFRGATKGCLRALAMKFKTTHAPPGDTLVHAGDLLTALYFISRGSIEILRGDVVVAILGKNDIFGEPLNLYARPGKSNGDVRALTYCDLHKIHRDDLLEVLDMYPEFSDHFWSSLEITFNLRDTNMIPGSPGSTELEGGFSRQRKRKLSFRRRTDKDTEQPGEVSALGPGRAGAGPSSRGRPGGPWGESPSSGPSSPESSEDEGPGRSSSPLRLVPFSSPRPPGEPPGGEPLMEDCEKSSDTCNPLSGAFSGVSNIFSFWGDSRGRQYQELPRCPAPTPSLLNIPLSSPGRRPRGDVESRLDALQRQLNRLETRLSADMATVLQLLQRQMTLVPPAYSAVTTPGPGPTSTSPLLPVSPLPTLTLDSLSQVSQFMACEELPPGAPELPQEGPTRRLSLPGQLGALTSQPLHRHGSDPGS", "test": "primary screen, population patch clamp on CHO cells stably expressing hERG", "units": {"hERG current change (%, negative = inhibition) at 1uM": "%"}}
{"smiles": "COc1ccc(N2CCN(c3cc(C)c4ccccc4n3)CC2)cc1", "hERG current change (%, negative = inhibition) at 1uM": 10.9}
{"smiles": "Cc1cc(=O)oc2c(C)c(OCC(=O)N3CCN(c4ccccc4)CC3)ccc12", "hERG current change (%, negative = inhibition) at 1uM": 9.28}
{"smiles": "Cc1ccccc1OCC(=O)N/N=C/c1ccncc1", "hERG current change (%, negative = inhibition) at 1uM": 11.5}
{"smiles": "O=C(OCC(=O)N1CCCC1)c1ccccc1O", "hERG current change (%, negative = inhibition) at 1uM": 15.7}
{"smiles": "CCOC(=O)C(CC)n1nc(C)n2c(cc3occc32)c1=O", "note": "(stereo not drawn)", "hERG current change (%, negative = inhibition) at 1uM": 13.4}
{"smiles": "CCC1CCCCN1c1nc(-c2ccncc2)nc2ccccc12", "note": "(stereo not drawn)", "hERG current change (%, negative = inhibition) at 1uM": -0.516}
{"smiles": "CC(=O)Nc1ccc(-n2c(C)ccc2C)cc1", "hERG current change (%, negative = inhibition) at 1uM": 12.9}
{"smiles": "CCOc1ccc(OCc2ccc(C(=O)NCc3cccnc3)o2)cc1", "hERG current change (%, negative = inhibition) at 1uM": -18.2}
{"smiles": "FC(F)Sc1ccc(NC(=S)NC2CCCC2)cc1", "hERG current change (%, negative = inhibition) at 1uM": 8.79}
{"smiles": "CC1(C)Cc2c(sc3c2c(=N)n(Cc2ccco2)c(=O)n3CC(=O)Nc2ccc(Cl)cc2)CO1", "hERG current change (%, negative = inhibition) at 1uM": -0.801}
{"smiles": "Clc1ccc(COn2nnc3ccccc32)c(Cl)c1", "hERG current change (%, negative = inhibition) at 1uM": 9.69}
{"smiles": "CCN(CC)CC.CCN1C(=O)/C(=C2/Sc3ccccc3N2CCCS(=O)(=O)O)SC1=S", "hERG current change (%, negative = inhibition) at 1uM": 3.89}
{"smiles": "CC1(C)Cc2c(sc3c2c(=N)n(Cc2ccco2)c(=O)n3Cc2ccc(F)cc2)CO1", "hERG current change (%, negative = inhibition) at 1uM": 0.644}
{"smiles": "O=c1cc([O-])[n+]2c3n1CCCN3CCC2", "hERG current change (%, negative = inhibition) at 1uM": 1.27}
{"smiles": "CCCCCN(C(=O)CCC(=O)OCC(=O)c1ccc(F)c(F)c1)c1c(N)n(CCCC)c(=O)[nH]c1=O", "hERG current change (%, negative = inhibition) at 1uM": -3.35}
{"smiles": "O=C(/C=C/c1ccc(OCc2ccccc2)c(OCc2ccccc2)c1)c1cccnc1", "hERG current change (%, negative = inhibition) at 1uM": 1.73}
{"smiles": "CC(C)(C)c1cc(C(=O)Nc2ccc(F)cc2)n(Cc2ccc(F)cc2)n1", "hERG current change (%, negative = inhibition) at 1uM": 10.1}
{"smiles": "N#CC1=C(N)N2C(=C(C#N)C13CCCCC3)SC1CCCCC12O", "note": "(stereo not drawn)", "hERG current change (%, negative = inhibition) at 1uM": 11.9}
{"smiles": "O=C(Nc1ccc(NC(=O)C2CCCCC2)nc1)c1cccs1", "hERG current change (%, negative = inhibition) at 1uM": 10.4}
{"smiles": "O=C(CSc1nc2ccccc2n1CC(=O)N1CCCC1)N1CCN(C(=O)c2ccco2)CC1", "hERG current change (%, negative = inhibition) at 1uM": 6.53}
{"smiles": "Cc1ccc(C)c(NC(=O)c2ccccc2NC(=O)C2CCCO2)c1", "note": "(stereo not drawn)", "hERG current change (%, negative = inhibition) at 1uM": 8.86}
{"smiles": "Nc1ccc(Cl)c(NC(=O)c2cccs2)c1", "hERG current change (%, negative = inhibition) at 1uM": 12.6}
{"smiles": "COC(=O)C1=C(c2cccc(OCc3ccccc3)c2)C[C@@H]2CC[C@H]1N2C(=O)NCc1ccc(Br)cc1", "hERG current change (%, negative = inhibition) at 1uM": 15.2}
{"smiles": "COC(=O)C1=C(C(=O)OC)C(c2ccc(OC)c(OC)c2)c2sc(=O)[nH]c2S1", "note": "(stereo not drawn)", "hERG current change (%, negative = inhibition) at 1uM": 2.33}
{"smiles": "O=C1COc2ccc(C(=O)COC(=O)CNS(=O)(=O)c3cccc(F)c3)cc2N1", "hERG current change (%, negative = inhibition) at 1uM": 3.27}
{"smiles": "CC1C(=O)C(C)C(c2ccco2)NC1c1ccco1.Cl", "note": "(stereo not drawn)", "hERG current change (%, negative = inhibition) at 1uM": 12.2}
{"smiles": "c1cnn(-c2cncc(-n3cccn3)n2)c1", "hERG current change (%, negative = inhibition) at 1uM": 6.72}
{"smiles": "CCOC(=O)c1c(CN(C)C)oc2cc(CN(C)C)c(O)c(CSc3ccccc3)c12.Cl", "hERG current change (%, negative = inhibition) at 1uM": 8.99}
{"smiles": "CC1CCN(C(=O)Cc2nn(C)c(=O)c3ccccc23)CC1", "hERG current change (%, negative = inhibition) at 1uM": 8.01}
{"smiles": "CN(C)C=NC(=O)c1cc(C(=O)c2ccccc2Cl)c[nH]1", "hERG current change (%, negative = inhibition) at 1uM": 10.1}
{"smiles": "Cc1cc(CNC(=O)C2(C(F)(F)F)CC(CCCO)CCCO2)nn1C", "note": "(stereo not drawn)", "hERG current change (%, negative = inhibition) at 1uM": 13.2}
{"smiles": "Cn1c(SCC(=O)Nc2ccc(Cl)cc2)nnc1C1CC1", "hERG current change (%, negative = inhibition) at 1uM": 16}
{"smiles": "C[C@@H]1CC=C[C@H]2[C@H]1C(=O)N(Cc1ccccc1)[C@H]2c1ccc(-c2ccoc2)cc1F", "hERG current change (%, negative = inhibition) at 1uM": 17.9}
{"smiles": "CC1(C)OC(=O)CC1C(=O)NCc1ccccc1", "note": "(stereo not drawn)", "hERG current change (%, negative = inhibition) at 1uM": 12.4}
{"smiles": "COc1cc(C(=O)N(CCCO)Cc2cc3ccc(C)c(C)c3[nH]c2=O)cc(OC)c1OC", "hERG current change (%, negative = inhibition) at 1uM": -1.43}
{"smiles": "COc1ccc(C2/C=C\\CN(CC(C)C)CC(=O)N2Cc2ccc(F)cc2)cc1", "note": "(stereo not drawn)", "hERG current change (%, negative = inhibition) at 1uM": 7.46}
{"smiles": "O=C(N/N=C/C=N/NC(=O)c1ccco1)c1ccco1", "hERG current change (%, negative = inhibition) at 1uM": -2.61}
{"smiles": "CCCOc1ccc(C(=O)N2CCCC2C(=O)O)cc1", "note": "(stereo not drawn)", "hERG current change (%, negative = inhibition) at 1uM": 12.3}
{"smiles": "CC1CN=C(NCc2ccc(F)cc2)S1", "note": "(stereo not drawn)", "hERG current change (%, negative = inhibition) at 1uM": 5.51}
{"smiles": "O=[N+]([O-])CCO", "hERG current change (%, negative = inhibition) at 1uM": 11.3}
{"smiles": "CC1(C)Cc2nc3oc4c(SCC(N)=O)ncnc4c3cc2CO1", "hERG current change (%, negative = inhibition) at 1uM": 8.49}
{"smiles": "Cc1ccc(N2C(=O)/C(=C\\c3ccco3)SC2=S)cc1", "hERG current change (%, negative = inhibition) at 1uM": 22.6}
{"smiles": "COc1ccc(CNC(=S)NC(C)CCc2ccccc2)cc1", "note": "(stereo not drawn)", "hERG current change (%, negative = inhibition) at 1uM": -16.1}
{"smiles": "N#C/C(=C/c1ccccc1[N+](=O)[O-])c1nc(C2CC2)cs1", "hERG current change (%, negative = inhibition) at 1uM": 12.5}
{"smiles": "COc1ccc(OC)c(NC(=O)Cc2csc(NC(=O)Nc3ccccc3OC)n2)c1", "hERG current change (%, negative = inhibition) at 1uM": 4.48}
